Data on 45 molecules can be found in PubChem BioAssay AID2528 (National Center for Advancing Translational Sciences (NCATS), 2010).

Several values for one entry are separate records, joined by “and”; a condition that tells them apart may be missing. Equal entries are not always repeated. Hit rate of the full screen: of about 350,000 compounds, about 700 (0.2%) were called active. Calls come from the whole dose curve; as a rule, active = well fitted inhibition curve with a large enough effect; inconclusive = small, poorly fitted or top-dose-only effect; inactive = flat fitted curve, though single readings scatter. Only a part is listed here, and it is no random draw.
Potency is the fitted concentration of half-maximal effect.

The target in this test is RecQ-like DNA helicase BLM (Homo sapiens) (UniProt P54132). The test can be described thus: qHTS Assay for Inhibitors of Bloom's syndrome helicase (BLM).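 For activity change, negative = inhibition: plate controls were vehicle for no effect and no enzyme for full effect.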 Note: nearly all actives have a fitted effect of over 35% in size. As to conditions: recombinant BLM DNA unwinding, fluorescence dequenching; series mostly up to 56.1 µM; activity change, negative = inhibition: at the top concentration. (In qHTS, concentration-response curves come from the screen itself.)
UniProt P54132, sequence (P54132 whole entry, looked up): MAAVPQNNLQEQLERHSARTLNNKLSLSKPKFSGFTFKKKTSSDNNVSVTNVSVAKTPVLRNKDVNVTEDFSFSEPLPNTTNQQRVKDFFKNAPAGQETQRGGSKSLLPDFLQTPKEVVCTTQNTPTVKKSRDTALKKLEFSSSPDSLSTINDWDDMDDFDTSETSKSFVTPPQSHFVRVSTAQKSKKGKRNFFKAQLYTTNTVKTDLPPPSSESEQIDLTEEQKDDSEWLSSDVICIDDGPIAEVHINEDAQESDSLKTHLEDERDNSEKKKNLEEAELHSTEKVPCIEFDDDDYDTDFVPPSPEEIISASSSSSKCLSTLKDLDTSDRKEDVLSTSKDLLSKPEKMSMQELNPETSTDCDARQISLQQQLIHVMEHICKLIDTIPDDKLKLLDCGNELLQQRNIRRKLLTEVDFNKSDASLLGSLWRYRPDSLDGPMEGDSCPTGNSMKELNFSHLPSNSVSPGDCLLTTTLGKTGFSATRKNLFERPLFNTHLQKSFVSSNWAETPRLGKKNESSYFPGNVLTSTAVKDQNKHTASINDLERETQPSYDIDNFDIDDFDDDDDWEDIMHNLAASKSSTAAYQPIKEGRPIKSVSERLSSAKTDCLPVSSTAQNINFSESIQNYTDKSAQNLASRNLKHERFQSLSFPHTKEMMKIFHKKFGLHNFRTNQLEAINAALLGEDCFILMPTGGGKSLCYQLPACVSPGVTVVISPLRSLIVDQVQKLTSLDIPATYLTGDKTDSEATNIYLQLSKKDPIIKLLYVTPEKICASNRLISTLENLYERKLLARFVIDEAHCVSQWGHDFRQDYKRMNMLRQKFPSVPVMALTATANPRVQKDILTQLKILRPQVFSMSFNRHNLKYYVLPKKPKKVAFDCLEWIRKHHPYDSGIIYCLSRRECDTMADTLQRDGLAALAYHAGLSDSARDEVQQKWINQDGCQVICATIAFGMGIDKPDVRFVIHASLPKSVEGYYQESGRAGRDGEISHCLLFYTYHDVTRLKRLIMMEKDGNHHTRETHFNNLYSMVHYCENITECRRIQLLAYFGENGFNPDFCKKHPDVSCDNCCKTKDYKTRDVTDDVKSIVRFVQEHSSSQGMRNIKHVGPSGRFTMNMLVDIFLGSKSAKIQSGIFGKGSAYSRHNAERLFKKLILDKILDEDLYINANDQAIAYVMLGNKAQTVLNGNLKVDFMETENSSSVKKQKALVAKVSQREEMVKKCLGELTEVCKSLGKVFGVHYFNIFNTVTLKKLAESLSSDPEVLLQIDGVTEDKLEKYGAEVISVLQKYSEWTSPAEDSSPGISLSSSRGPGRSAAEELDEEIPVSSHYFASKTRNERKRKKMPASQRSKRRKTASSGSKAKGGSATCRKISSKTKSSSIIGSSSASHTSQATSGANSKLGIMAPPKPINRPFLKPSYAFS
Take `CC1=C/C(=C(/c2cc(C)c(O)c(Br)c2)c2ccccc2S(=O)(=O)O)C=C(Br)C1=O`: the “activity change, negative = inhibition” value is inactive: -28%.

In the case of `O=C(O)[C@@H]1C[C@H](C(=O)O)N1`, the “activity change, negative = inhibition” value was inactive: 3.37%.

For `Cc1cn([C@H]2C=C[C@@H](CO)O2)c(=O)[nH]c1=O`, the Potency entry is “inactive”.

With `O[C@H](CN1CCN(c2cccc(Cl)c2)CC1)C(c1ccccc1)c1ccccc1`, the “activity change, negative = inhibition” value is inactive: -12.4%.

Regarding `CCCC[C@H](CC)CN=C(N)NC(N)=NCCCCCCN=C(N)NC(N)=NC[C@@H](CC)CCCC`, the “activity change, negative = inhibition” value is inactive: 55.1% [at 21.4 µM].

For `C=CCn1c(SCC(=O)N2CCOCC2)nc2scc(-c3ccco3)c2c1=O`, the Potency was active: 17.8 µM.

Take `COc1cccc2c1C(=O)c1c(O)c3c(c(O)c1C2=O)C[C@@](O)(C(C)=O)C[C@@H]3O[C@H]1C[C@H](N)[C@H](O)[C@H](C)O1`: the Potency was active: 14.1 µM and active: 28.2 µM.

In the case of `COC(=O)C1C(O)CC[C@@H]2CN3CCc4c([nH]c5ccccc45)C3C[C@@H]12` (stereo not given in full), the Potency entry is “inactive”.

Turning to `COc1ccc(C(CC(=O)N2CCCC2)c2c(OC)cc(OC)c3c(-c4ccccc4)cc(=O)oc23)cc1` (stereo not given), the “activity change, negative = inhibition” value was inactive: -29.3%.

As to `COC(=O)C1=C(C)NC(C)=C([N+](=O)[O-])[C@H]1c1ccccc1C(F)(F)F`, the “activity change, negative = inhibition” value was inactive: -6.18%.

For the molecule `COc1ccc(N=C2NC(=O)/C(=C/c3ccco3)S2)cc1`, the “activity change, negative = inhibition” value is inactive: -19.1%.

With `O=C(/C=C/c1ccccc1Cl)Nc1ccc2c(c1)C(=O)NC2=O`, the Potency is active: 31.6 µM.

Turning to `NC(=O)c1ccc(N=C2C(=O)Nc3ccc([N+](=O)[O-])cc32)cc1`, the Potency is active: 31.6 µM.

In the case of `O=C(/C=C/c1ccc(O)cc1)c1ccc(O)cc1O`, the Potency entry was “inactive”.

For the molecule `Cc1cc(C)c(S(=O)(=O)/N=C2/C=C(SCC(=O)O)C(=O)c3ccccc32)cc1C`, the Potency is active: 31.6 µM.

In the case of `Nc1cc(=O)[nH]c(N)n1`, the “activity change, negative = inhibition” value is inactive: 2.16%.

For `N[C@@H](Cc1c[nH]c2ccccc12)C(=O)O`, the “activity change, negative = inhibition” value was inactive: -1.08%.

On to `CCn1c(=O)[nH]c2cc(Cl)c(Cl)cc21`, for which the “activity change, negative = inhibition” value is inactive: -2.14%.

For `Cc1cccc(N2CSC3=C(C#N)C(c4ccc(C)o4)CC(=O)N3C2)c1` (stereo not given), the Potency is active: 14.1 µM.

For the molecule `CCCCCCCCCC(=O)N[C@H](CN1CCOCC1)[C@H](O)c1ccccc1`, the “activity change, negative = inhibition” value was inactive: -5.41%.

Take `CCCN(CCC)CCc1cccc2c1CC(=O)N2`: the “activity change, negative = inhibition” value was inactive: -6.12%.

Turning to `NC1CONC1=O` (stereo not given), the “activity change, negative = inhibition” value was inactive: -10.1%.

In the case of `Cc1[nH]c(=O)c(C#N)cc1-c1ccc2nccn2c1`, the “activity change, negative = inhibition” value is inactive: -7.83%.

For the molecule `CC(=O)O[C@H]1C(=O)[C@@]2(C)[C@H]([C@H](OC(=O)c3ccccc3)[C@]3(O)C[C@H](OC(=O)[C@H](O)[C@@H](NC(=O)c4ccccc4)c4ccccc4)C(C)=C1C3(C)C)[C@]1(OC(C)=O)CO[C@@H]1C[C@@H]2O`, the Potency entry was “inactive”.

Consider `CSc1nc(NCCOCCO)c2sc3nc(-c4ccco4)c4c(c3c2n1)CCC4`, for which the Potency was active: 25.1 µM.

Take `N#Cc1c(N2CCCC2)nc(N)c2c(N)nc(N3CCCC3)cc12`: the Potency is active: 2.82 µM.

Regarding `CS(=O)(=O)N1CCN(c2ccc([N+](=O)[O-])c(NCc3ccc(Cl)cc3)c2)CC1`, the Potency was active: 15.8 µM.

With `C#C[C@]1(O)CC[C@@H]2[C@H]3CCC4=Cc5oncc5C[C@]4(C)[C@@H]3CC[C@@]21C`, the “activity change, negative = inhibition” value is inactive: 1.43% [at 21.4 µM].

With `CC1(C)S[C@@H]2[C@H](NC(=O)[C@H](N)c3ccccc3)C(=O)N2[C@H]1C(=O)O`, the Potency entry is “inactive”.

In the case of `NC(Cc1cc(I)c(Oc2ccc(O)c(I)c2)c(I)c1)C(=O)O` (stereo not given), the “activity change, negative = inhibition” value was inactive: 3.23%.

In the case of `Oc1ccc(-c2nc(-c3ccc(F)cc3)c(-c3ccncc3)[nH]2)cc1`, the “activity change, negative = inhibition” value is inactive: -5.63%.

Turning to `O=C1c2c(O)cc(O)cc2O[C@H](c2ccc(O)c(O)c2)[C@@H]1O`, the “activity change, negative = inhibition” value was inactive: -8.43%.

With `CCOC(=O)c1cnc2c(cnn2CC)c1NN=C(C)C`, the “activity change, negative = inhibition” value was inactive: -1.32%.

Turning to `O=c1cc(-c2ccc(O)cc2)oc2c(O)c(O)c(O)c(O)c12`, the Potency was active: 10 µM.

Regarding `N[C@H](CCC(=O)N[C@H](CSN=O)C(=O)NCC(=O)O)C(=O)O`, the “activity change, negative = inhibition” value is inactive: 1.3%.

`COc1cc2ncnc(Nc3cccc(Cl)c3)c2cc1OC`: the Potency result is “inactive”.

As for `O=C(O)c1cc2cc(Cc3cccnc3)ccc2o1`, the “activity change, negative = inhibition” value is inactive: 3.89%.

Take `C1CCc2nnnn2CC1`: the Potency entry is “inactive”.

For the molecule `O=C(O)c1cc(=O)c2c(Cl)cc(Cl)cc2[nH]1`, the Potency entry was “inactive”.

Regarding `CCc1nnc(NC(=O)CSc2sc3c(O)cc(=O)[nH]c3c2C#N)s1`, the Potency was active: 17.8 µM.

Turning to `NC(=O)CC[C@H](N)C(=O)O`, the “activity change, negative = inhibition” value is inactive: 0.641%.

As for `COc1c(O)cc2oc(-c3ccc(O)c(O)c3)cc(=O)c2c1O`, the “activity change, negative = inhibition” value is inactive: -27.6%.

On to `CC(C)OC(=O)C(C)(C)Oc1ccc(C(=O)c2ccc(Cl)cc2)cc1`, for which the Potency entry is “inactive”.

In the case of `CCNC(=O)[C@H]1O[C@H](n2cnc3c(N)nc(NCCc4ccc(CCC(=O)O)cc4)nc32)[C@@H](O)[C@@H]1O`, the “activity change, negative = inhibition” value is inactive: -2.49%.

Take `O=C(CSc1nc2ccccc2n1CCc1ccccc1)c1ccc(O)c(O)c1`: the Potency was active: 11.2 µM.
